# Numbering of substitutions follows the chain as printed.
# T1: human ENTPD2 (Homo sapiens, UniProt Q9Y5L3)
# T1 construct: residues 29-462 of human or cyno ENTPD2; GP67 signal peptide (N); made in house; host or cells: High Five (Trichoplusia ni) insect cells, baculovirus
# T1 sequence (Q9Y5L3 29-462): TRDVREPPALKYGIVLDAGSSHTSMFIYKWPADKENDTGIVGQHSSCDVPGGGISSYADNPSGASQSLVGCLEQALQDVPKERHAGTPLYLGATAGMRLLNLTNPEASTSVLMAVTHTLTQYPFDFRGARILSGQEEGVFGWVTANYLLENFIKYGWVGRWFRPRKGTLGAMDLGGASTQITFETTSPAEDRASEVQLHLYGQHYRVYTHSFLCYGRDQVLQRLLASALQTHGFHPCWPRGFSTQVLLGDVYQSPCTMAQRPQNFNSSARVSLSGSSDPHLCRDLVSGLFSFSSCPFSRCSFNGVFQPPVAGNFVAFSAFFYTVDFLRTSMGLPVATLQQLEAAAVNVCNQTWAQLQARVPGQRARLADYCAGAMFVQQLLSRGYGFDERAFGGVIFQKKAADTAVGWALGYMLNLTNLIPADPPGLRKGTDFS
# T2: mouse ENTPD2 (Mus musculus, UniProt O55026)
# T2 construct: residues 29-462 of mouse or rat ENTPD2 (the extracellular domain); His6; mouse IgK signal peptide (N); made in house; host or cells: FreeStyle 293-F cells (transient)
# T2 sequence (O55026 29-462): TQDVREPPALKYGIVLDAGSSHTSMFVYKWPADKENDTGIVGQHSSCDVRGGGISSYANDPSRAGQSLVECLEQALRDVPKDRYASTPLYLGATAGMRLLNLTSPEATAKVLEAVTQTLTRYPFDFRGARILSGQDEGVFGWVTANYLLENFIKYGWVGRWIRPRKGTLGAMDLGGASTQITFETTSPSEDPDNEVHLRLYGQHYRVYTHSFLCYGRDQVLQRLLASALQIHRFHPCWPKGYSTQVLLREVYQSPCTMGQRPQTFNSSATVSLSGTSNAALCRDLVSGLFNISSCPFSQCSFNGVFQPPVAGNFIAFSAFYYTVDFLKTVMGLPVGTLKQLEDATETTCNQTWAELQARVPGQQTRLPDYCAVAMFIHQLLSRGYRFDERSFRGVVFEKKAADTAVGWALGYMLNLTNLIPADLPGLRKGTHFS
# B1: mAb8: anti-human ENTPD2 antibody; probably heavy chain SEQ ID NO: 93, light chain SEQ ID NO: 104 (antibody)
# heavy: QVQLQQSGPGLVKPSQTLSLTCAISGDSVSSSSAAWNWIRQSPSRGLEWLGRIYYRSKWYNDYAVSVKSRITINPDTSKNQFSLQLNSVTPEDTAVYYCARGSYVTSSYEGFDYWGQGTLVTVSSASTKGPSVFPLAPSSKSTSGGTAALGCLVKDYFPEPVTVSWNSGALTSGVHTFPAVLQSSGLYSLSSVVTVPSSSLGTQTYICNVNHKPSNTKVDKRV[left out - human IgG1 Fc]
# light: SYELTQPLSVSVALGQTARITCSGDNLPEKYAYWYQQKPGQAPVLVIYDDNKRPSGIPERFSGSNSGNTATLTISRAQAGDEADYYCQSYGKWGWTWVFGGGTKLTVLGQPKAAPSVTLFPPSSEELQANKATLVCLISDFYPGAVTVAWKADSSPVKAGVETTTPSKQSNNKYAASSYLSLTPEQWKSHRSYSCQVTHEGSTVEKTVAPTECS
# B2: mAb3: humanized anti-human ENTPD2 antibody derived from mAb17; probably heavy chain SEQ ID NO: 35, light chain SEQ ID NO: 31 (antibody)
# heavy: QVQLVQSGAEVVKPGASVKISCKASGYTFTDYNMDWVKQAPGQRLEWIGDINPKYDISTYNQQFKGKATITVDTSASTAYMELSSLRSEDTAVYYCARRGFFLYYGINYYYFDVWGQGTLVTVSSASTKGPSVFPLAPSSKSTSGGTAALGCLVKDYFPEPVTVSWNSGALTSGVHTFPAVLQSSGLYSLSSVVTVPSSSLGTQTYICNVNHKPSNTKVDKRV[left out - human IgG1 Fc]
# light: EIVLTQSPATLSASPGERITLSCSASSSVSYIHWYQQKPGQAPRLLIYSTSNLASGIPARFSGSGSGTFYTLTISSVEPEDAAVYYCHQWSSYPWTFGGGTKLEIKRTVAAPSVFIFPPSDEQLKSGTASVVCLLNNFYPREAKVQWKVDNALQSGNSQESVTEQDSKDSTYSLSSTLTLSKADYEKHKVYACEVTHQGLSSPVTKSFNRGEC
# B3: mAb7: humanized anti-human ENTPD2 antibody derived from mAb17; probably heavy chain SEQ ID NO: 27, light chain SEQ ID NO: 80 (antibody)
# heavy: B2 heavy with T74K
# light: B2 light with R18E
# B4: mAb2: humanized anti-human ENTPD2 antibody derived from mAb17; probably heavy chain SEQ ID NO: 27, light chain SEQ ID NO: 31 (antibody)
# heavy: B2 heavy with T74K
# light: B2 light
# B5: mAb9: anti-human ENTPD2 antibody; probably heavy chain SEQ ID NO: 117, light chain SEQ ID NO: 127 (antibody)
# heavy: QVQLVQSGAEVKKPGSSVKVSCKASGGTFDSYAVSWVRQAPGQGLEWMGRIVPWLGHTQYAQKFQGRVTITADESTSTAYMELSSLRSEDTAVYYCARESPGYRYSFDVWDQGTLVTVSSASTKGPSVFPLAPSSKSTSGGTAALGCLVKDYFPEPVTVSWNSGALTSGVHTFPAVLQSSGLYSLSSVVTVPSSSLGTQTYICNVNHKPSNTKVDKRV[left out - human IgG1 Fc]
# light: SYELTQPLSVSVALGQTARITCSGDAIGEKYVYWYQQKPGQAPVLVIYDDNNRPSGIPERFSGSNSGNTATLTISRAQAGDEADYYCASYDLQQARWVFGGGTKLTVLGQPKAAPSVTLFPPSSEELQANKATLVCLISDFYPGAVTVAWKADSSPVKAGVETTTPSKQSNNKYAASSYLSLTPEQWKSHRSYSCQVTHEGSTVEKTVAPTECS
# B6: mAb10: anti-human ENTPD2 antibody; probably heavy chain SEQ ID NO: 134, light chain SEQ ID NO: 127 (antibody)
# heavy: B5 heavy with H57F, Q59R
# light: B5 light
# Target: T1, human ENTPD2
# Assay: Biacore SPR kinetic affinity to human ENTPD2 ECD
# Assay type: binding
# Details: 25° C., association rate
# Experimental: (§1) Biacore Screening: Affinity was measured by determining the kinetic rate constants using surface plasmon resonance (SPR) on a Biacore T200 or T100 with the T200 sensitivity upgrade instrument (Biacore, GE Healthcare). Antibodies were captured on CM5 sensor chips (Biacore, GE Healthcare) prepared with a mouse anti-human IgG Fc antibody (ThermoFisher catalogue # 05-4200) amine coupled to the surface. […] ENTPD2 analytes were allowed to associate for 180 s and dissociate for up to 1800 s depending on the off-rate of the antibody at a flow rate of 30 μL/min. The running buffer was PBS pH 7.2 (prepared from a Corning 10X stock, cat# 46-013-CM) +0.05% Tween 20. Regeneration was accomplished with 30 s injections of 3 or 4 M MgCl2 to remove all the captured antibody and remaining complex from the surface, after which fresh antibody was captured. The raw data were analyzed using Biacore T200 Evaluation Software version 1.0 and fit to a 1:1 binding model, with all parameters set to fit globally except for RI, which was set to fit locally.
row,Molecule,Human ENTPD2 ka
1,B1,290000 M⁻¹ s⁻¹
2,B2,130000 M⁻¹ s⁻¹
3,B3,210000 M⁻¹ s⁻¹
4,B4,110000 M⁻¹ s⁻¹
5,B5,380000 M⁻¹ s⁻¹
6,B6,340000 M⁻¹ s⁻¹

# Same assay, conditions: 25° C., dissociation rate
row,Molecule,Human ENTPD2 kd
1,B1,0.00094 s⁻¹
2,B2,0.00016 s⁻¹
3,B3,0.00019 s⁻¹
4,B4,0.00018 s⁻¹
5,B5,0.0003 s⁻¹
6,B6,0.00024 s⁻¹

# Tested on: cynomologus (cyno) ENTPD2
# Assay: Biacore SPR kinetic affinity to cyno ENTPD2 ECD
# Assay type: binding, cynomolgus monkey
# Details: 25° C., association rate
# Experimental: as §1
row,Molecule,Cyno ENTPD2 ka
1,B1,300000 M⁻¹ s⁻¹
2,B2,450000 M⁻¹ s⁻¹
3,B3,1.2e+06 M⁻¹ s⁻¹
4,B4,430000 M⁻¹ s⁻¹
5,B5,990000 M⁻¹ s⁻¹
6,B6,1.2e+06 M⁻¹ s⁻¹

# Same assay, conditions: 25° C., dissociation rate
row,Molecule,Cyno ENTPD2 kd
1,B1,0.024 s⁻¹
2,B2,0.00098 s⁻¹
3,B3,0.0012 s⁻¹
4,B4,0.0012 s⁻¹
5,B5,0.021 s⁻¹
6,B6,0.018 s⁻¹

# Target: T2, mouse ENTPD2
# Assay: Antibody specificity: binding to mouse ENTPD2
# Details: not given
# Experimental: ELISA screening on directly coated antigen: Maxisorp™ 384-well plates (Thermo Nunc) were coated with 2 μg/ml of recombinant ENTPD2 diluted in PBS. After blocking with 2% BSA (bovine serum albumin) in PBS for 1 hr at room temperature, washing plates 3× with TBST (0.05% Tween 20 in TBS, Sigma Cat# T9039), primary antibodies in TBST and 2% BSA were added in a serial dilution and incubated for 1 hr at room temperature. Plates were washed again and bound antibodies were detected by incubation with anti-hFc gamma conjugated to horseradish peroxidase (HRP; Jackson ImmunoResearch, Cat#115-035-098, diluted 1:5000 in 1× TBST+2% BSA) for 1 hr at room temperature followed by washing with TBST and afterwards addition of SureBlue Peroxidase substrate (KPL, #52-00-03) substrate. After 15 min, absorbance at 650 nm was recorded and analyzed in GraphPad Prism6.
# as §1
# Antibody specificity for mAb1-mAb10 was confirmed. […] Antibodies mAb8, mAb9, and mAb10 show weak affinity to mouse ENTPD2. None of the selected antibodies bind to rat ENTPD2.
row,Molecule,binding / cross-reactivity to mouse ENTPD2
1,B1,weak affinity
2,B5,weak affinity
3,B6,weak affinity

# Same assay, conditions: Biacore SPR, mouse ENTPD2
row,Molecule,Mouse ENTPD2 BIACore KD (nM)
1,B1,Weak
2,B2,No binding
3,B3,No binding
4,B4,No binding
5,B6,Weak
